Laboratory results reported in publication PMC12796746.
These are yes or no findings as the source states them, for the method shown. Some results given as binding are weak or reduced against the parent protein; the word gives no strength.

What was measured:
Test in all cases: peptide or protein array; HuProt Human Proteome Microarray v2.0, full-length human proteins spotted in duplicate; V5-tagged TRPV4 protein in solution at 1 μM, 1 h at 4 °C, 150 mM NaCl, 2.7 mM KCl, 25 mM Trizma base, 0.05% Tween-20, pH 7.4; detected with Alexa Fluor 647 anti-V5; hit: z-score >= 2 (N terminus: both of 2 slides; ARD constructs: at least 2 of 3 slides); both purified
[1] = target: T1, Rab11 family-interacting protein 1 (human) (UniProt Q6WKZ4)
T1 sequence: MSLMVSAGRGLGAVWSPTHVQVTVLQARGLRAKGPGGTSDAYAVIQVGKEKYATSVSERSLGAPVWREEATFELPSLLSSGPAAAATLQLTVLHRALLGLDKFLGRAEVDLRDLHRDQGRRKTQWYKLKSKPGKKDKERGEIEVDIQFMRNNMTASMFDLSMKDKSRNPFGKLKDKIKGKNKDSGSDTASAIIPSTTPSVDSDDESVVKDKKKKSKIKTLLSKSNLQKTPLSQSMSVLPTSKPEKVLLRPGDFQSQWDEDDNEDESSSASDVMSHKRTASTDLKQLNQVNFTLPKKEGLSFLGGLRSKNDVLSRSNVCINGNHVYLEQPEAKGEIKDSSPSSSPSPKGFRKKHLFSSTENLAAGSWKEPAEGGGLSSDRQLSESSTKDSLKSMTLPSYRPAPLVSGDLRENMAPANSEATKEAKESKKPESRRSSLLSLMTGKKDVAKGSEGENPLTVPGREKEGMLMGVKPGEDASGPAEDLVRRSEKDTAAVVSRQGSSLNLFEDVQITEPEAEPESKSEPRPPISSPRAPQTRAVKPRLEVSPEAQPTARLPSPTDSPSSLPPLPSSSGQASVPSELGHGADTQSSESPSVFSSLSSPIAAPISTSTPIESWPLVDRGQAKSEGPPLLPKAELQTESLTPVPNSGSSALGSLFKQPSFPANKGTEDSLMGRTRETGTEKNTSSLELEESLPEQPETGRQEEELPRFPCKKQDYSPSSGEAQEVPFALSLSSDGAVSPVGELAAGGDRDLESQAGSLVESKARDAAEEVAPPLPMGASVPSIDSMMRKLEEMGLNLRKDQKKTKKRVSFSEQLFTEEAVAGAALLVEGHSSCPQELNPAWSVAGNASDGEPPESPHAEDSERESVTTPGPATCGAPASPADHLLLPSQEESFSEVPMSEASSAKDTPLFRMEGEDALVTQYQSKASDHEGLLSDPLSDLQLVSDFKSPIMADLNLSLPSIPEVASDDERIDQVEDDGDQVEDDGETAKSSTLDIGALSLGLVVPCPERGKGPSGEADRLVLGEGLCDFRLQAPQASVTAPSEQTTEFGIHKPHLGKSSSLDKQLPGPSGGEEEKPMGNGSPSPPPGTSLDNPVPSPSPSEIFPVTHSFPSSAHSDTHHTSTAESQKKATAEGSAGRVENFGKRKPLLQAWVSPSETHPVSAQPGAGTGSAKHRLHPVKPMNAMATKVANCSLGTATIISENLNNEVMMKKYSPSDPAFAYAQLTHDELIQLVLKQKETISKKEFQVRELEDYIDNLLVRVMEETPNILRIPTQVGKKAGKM

[2] = target: T2, Telomeric repeat-binding factor 2-interacting protein 1 (human) (UniProt Q9NYB0)
T2 sequence: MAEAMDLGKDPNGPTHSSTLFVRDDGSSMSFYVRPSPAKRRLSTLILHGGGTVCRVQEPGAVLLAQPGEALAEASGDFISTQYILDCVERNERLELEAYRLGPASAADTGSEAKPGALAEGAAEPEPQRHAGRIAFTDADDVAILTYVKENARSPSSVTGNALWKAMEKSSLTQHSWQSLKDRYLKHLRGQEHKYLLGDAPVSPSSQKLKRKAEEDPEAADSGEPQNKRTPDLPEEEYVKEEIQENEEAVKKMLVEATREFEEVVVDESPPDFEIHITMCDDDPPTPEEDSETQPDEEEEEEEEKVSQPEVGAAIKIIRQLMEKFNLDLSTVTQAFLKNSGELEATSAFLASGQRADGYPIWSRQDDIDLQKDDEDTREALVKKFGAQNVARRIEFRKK

[3] = target: T3, Kin of IRRE-like protein 3 (human) (UniProt Q8IZU9)
T3 sequence: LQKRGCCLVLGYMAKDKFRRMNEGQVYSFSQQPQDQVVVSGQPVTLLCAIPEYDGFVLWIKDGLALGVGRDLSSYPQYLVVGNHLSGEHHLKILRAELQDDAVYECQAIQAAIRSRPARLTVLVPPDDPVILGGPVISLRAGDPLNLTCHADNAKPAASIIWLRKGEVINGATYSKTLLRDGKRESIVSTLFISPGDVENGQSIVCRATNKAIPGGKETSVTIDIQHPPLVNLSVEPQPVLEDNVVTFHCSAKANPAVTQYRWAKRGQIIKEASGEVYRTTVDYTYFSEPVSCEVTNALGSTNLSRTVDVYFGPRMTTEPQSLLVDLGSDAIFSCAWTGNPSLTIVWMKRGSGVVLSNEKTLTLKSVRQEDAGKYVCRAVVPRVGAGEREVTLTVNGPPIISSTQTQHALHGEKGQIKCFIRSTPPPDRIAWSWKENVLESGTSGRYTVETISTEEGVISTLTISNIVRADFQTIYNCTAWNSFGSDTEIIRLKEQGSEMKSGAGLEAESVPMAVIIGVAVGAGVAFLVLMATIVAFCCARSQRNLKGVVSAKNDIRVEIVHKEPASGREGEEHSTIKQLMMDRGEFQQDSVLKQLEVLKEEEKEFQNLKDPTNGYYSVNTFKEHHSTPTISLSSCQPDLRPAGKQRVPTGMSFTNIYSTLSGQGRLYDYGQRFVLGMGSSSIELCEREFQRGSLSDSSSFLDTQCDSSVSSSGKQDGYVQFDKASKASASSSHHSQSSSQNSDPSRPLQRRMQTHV

Question: What does the source list for “TRPV4^R269C-ARD (from UniProt Q9HBA0 149-397) (domain or fragment)”?
Answer: binding [1]: no binding (tested: 1 μM); binding [2]: no binding (tested: 1 μM); binding [3]: no binding (tested: 1 μM)

Question: Which binding [1] does the source give for “TRPV4^R315W-ARD (from UniProt Q9HBA0 149-397) (domain or fragment)” here?
Answer: Its binding is “no binding (tested: 1 μM)”.

Question: What about the binding [2] of the same substance?
Answer: The binding was “no binding (tested: 1 μM)”.

Question: What about the binding [3] of the same substance?
Answer: The binding was “no binding (tested: 1 μM)”.

Question: “TRPV4^WT-ARD (amino acids 149-397) (from UniProt Q9HBA0 149-397) (domain or fragment)” was tested. Which binding [1] did it give?
Answer: Its binding is “binds”.
